Data reported in PubChem BioAssay AID504332 (National Center for Advancing Translational Sciences (NCATS), 2011).
Among all 350,000 compounds or so, about 31,000 (8.9%) were called active. Inconclusive means that the source gave no clear call. Such entries were picked first, then a sample of the others. The call rests on the fitted dose curve; in most records, active means well fitted inhibition curve with a large enough effect; inconclusive means small, poorly fitted or top-dose-only effect; inactive means no such curve, though single readings can be large or run the other way. Where the call is inconclusive, the potency comes from a doubtful curve fit.

target: Histone-lysine N-methyltransferase EHMT2 (Homo sapiens) (UniProt Q96KQ7); experiment: qHTS Assay for Inhibitors of Histone Lysine Methyltransferase G9a; conditions: G9a H3K9 monomethylation, AlphaScreen, 2 h; activity, negative = inhibition: at 59 µM (top of the series) unless noted; further: nearly all actives have a fitted effect of over 75% in size
UniProt Q96KQ7, sequence (Q96KQ7 whole entry, looked up, the tested form may be a part): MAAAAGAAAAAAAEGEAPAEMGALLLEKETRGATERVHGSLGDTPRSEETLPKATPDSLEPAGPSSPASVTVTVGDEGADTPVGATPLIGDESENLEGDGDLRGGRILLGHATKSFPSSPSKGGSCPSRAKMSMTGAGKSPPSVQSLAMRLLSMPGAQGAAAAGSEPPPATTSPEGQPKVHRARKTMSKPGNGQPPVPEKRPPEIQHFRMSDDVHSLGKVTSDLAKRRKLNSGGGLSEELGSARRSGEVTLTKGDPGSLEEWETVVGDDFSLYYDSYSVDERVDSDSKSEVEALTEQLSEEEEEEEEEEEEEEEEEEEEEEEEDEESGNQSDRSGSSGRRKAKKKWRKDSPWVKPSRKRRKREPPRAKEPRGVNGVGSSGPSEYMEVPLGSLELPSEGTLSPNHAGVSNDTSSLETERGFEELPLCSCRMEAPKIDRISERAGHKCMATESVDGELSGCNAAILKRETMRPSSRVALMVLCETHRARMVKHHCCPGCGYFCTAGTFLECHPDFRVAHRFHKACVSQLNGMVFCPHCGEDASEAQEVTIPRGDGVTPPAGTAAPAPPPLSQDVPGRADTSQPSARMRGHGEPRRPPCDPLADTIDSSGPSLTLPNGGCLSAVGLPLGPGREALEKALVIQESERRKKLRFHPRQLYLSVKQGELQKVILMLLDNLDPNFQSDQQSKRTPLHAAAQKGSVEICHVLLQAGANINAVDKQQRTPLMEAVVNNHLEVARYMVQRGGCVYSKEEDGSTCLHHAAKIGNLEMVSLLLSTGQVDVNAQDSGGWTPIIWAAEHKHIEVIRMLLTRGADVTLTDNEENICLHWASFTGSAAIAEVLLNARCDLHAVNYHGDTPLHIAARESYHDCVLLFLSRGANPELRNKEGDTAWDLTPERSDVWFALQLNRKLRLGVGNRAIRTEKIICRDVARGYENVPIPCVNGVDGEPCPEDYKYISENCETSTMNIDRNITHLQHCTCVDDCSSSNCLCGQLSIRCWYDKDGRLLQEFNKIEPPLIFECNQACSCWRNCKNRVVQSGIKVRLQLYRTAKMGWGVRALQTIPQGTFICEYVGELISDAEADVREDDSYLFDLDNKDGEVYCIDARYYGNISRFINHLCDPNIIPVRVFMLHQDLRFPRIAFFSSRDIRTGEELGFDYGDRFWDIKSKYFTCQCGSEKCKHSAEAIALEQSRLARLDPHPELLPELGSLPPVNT
Text: Methylated lysines, on the N-terminal tails of histone proteins serve as epigenetic markers to recruit factors that can then modify local chromatin structure to lead to functional consequences. G9a and other members of the SUV39 family of the SET domain-containing superfamily of histone lysine methyltransferases (HMT) have been identified to specifically methylate Lys9 of histone H3 (H3K9). G9a catalyzes the mono- and di-methylation of H3K9 in mammalian euchromatic regions, where the resulting H3K9me2 is indicative of transcriptional repression. […] The inhibition of G9a will result in transcriptional activation and work synergistically with DNA methyltransferase and histone deacetylase inhibitors, to kill cancer cells. This qHTS assay for identification of G9a inhibitors is a chemiluminescence based AlphaScreen (PerkinElmer). Methylation of biotinylated-histone peptide is measured through specific antibody-based detection, in conjunction with streptavidin-coated donor and anti-IgG antibody-coated acceptor beads. The method is particularly well suited for detection of inhibitors acting by the desired histone peptide competitive mechanism and is applicable to testing other HMTs. Although AlphaScreen has significant advantages with its utility in a variety of epigenetic target assays, the primary screening data provided in this deposition should be used with caution due to the prevalence of screening artifacts. An AlphaScreen counterscreen is highly recommended to be run against any putative actives to eliminate non specific artifacts. Alternatively, one can use other AlphaScreen assays in PubChem to filter out promiscuous hits. Quinn et al. A chemiluminescence-based method for identification of histone lysine methyltransferase inhibitors. Mol Biosyst 6(5): 782-8. 2010. PMID: 20567762 [2] Baell,Holloway. New substructure filters for removal of pan assay interference compounds (PAINS) from screening libraries and for their exclusion in bioassays. J Med Chem. 53(7):2719-40. 2010. PMID: 20131845 NIH Molecular Libraries Probe Production Network [MLPCN] NIH Chemical Genomics Center [NCGC] Structural Genomics Consortium (SGC) NIH Grant: 5U54 MH084681-02
To each well of a 1,536w plate, 2ul of HMT enzyme (final 20nM) were added, using a nanoliter dispenser. The G9a- and GLP-inhibitor BIX-01294 (CID: 25150857) are used as an intraplate control, with a 16-point titration in duplicate. A Kalypsys pin-tool transferred 23nl of library compound solution in DMSO to each well. Following a 15 min incubation of enzyme with compounds at room temperature, 1ul mixture of b-H3K9 peptide substrate (final 500nM) and SAM cofactor (final 20uM) were added. Reactions were allowed to proceed at room temperature for 2 hours. Methylated b-H3K9 peptide product was detected with 0.5 ug/mL rabbit polyclonal anti-monomethyl histone H3K9 antibody (Abcam Inc., Cambridge, MA) and 20 ug/mL each streptavidin-coated donor and anti-rabbit IgG acceptor AlphaScreen beads. Antibody and beads were added in a 1ul dispense, for a final volume of 4ul, and plates were incubated, protected from the light, for 10 min at room temperature. Microplates were then read on an EnVision multilabel plate reader using the 1,536 plate HTS AlphaScreen aperture (excitation time 80 ms, measurement time 240 ms).
On the % scale 0 is the no-effect control and ±100 the full control effect; potency means the concentration at half of the fitted maximal effect; tags describe the fitted curve by direction and shape.

| SMILES | Potency | activity, negative = inhibition |
| --- | --- | --- |
| O=C(O)c1c[nH]c(=S)n1-c1ccc(F)cc1 | active: 28.2 µM | – |
| Cc1ccc(N2CCN(S(=O)(=O)c3ccc4c(c3)n(C)c(=O)c(=O)n4C)CC2C)cc1 (stereo not given) | inconclusive: 79.4 µM [inhibitor, single point] | – |
| COc1ccc(NC(=O)Cn2c(=O)n(-c3cccc(C)c3)c(=O)c3c2c2cc(C)ccc2n3C)cc1OC | inactive | – |
| COC(=O)c1[nH]c(C)c(/C(O)=C2\C(=O)C(=O)N(CCN3CCOCC3)C2c2ccc(C)o2)c1C (stereo not given) | active: 44.7 µM | – |
| CCC(C)NC(=O)c1ccc(C)c(NC(=O)C2=C(C)OCCS2)c1 (stereo not given) | inactive | – |
| Cc1[nH]c2ccccc2c1C(=O)CSc1ccc(Cl)cc1 | inactive | – |
| CCCCC1(C)Cc2ccccc2C(=S)N1 (stereo not given) | inactive | – |
| COc1ccc(-c2n[nH]c3c2C(c2ccc(Cl)cc2Cl)NC3=O)cc1 (stereo not given) | inconclusive: 28.2 µM [inhibitor, partial curve, poor fit] | – |
| COc1ccccc1C(=O)NC(=O)COC(=O)c1nc(Cl)ccc1Cl | inactive | – |
| Cc1ccn2cc(-c3nonc3C)cc2c1 | active: 10 µM | – |
| CN(C)CCCN(C(=O)c1ccc(Cl)s1)c1nc2cc3c(cc2s1)OCO3 | inconclusive: 79.4 µM [inhibitor, single point] | – |
| COC(=O)CC1C(C)(C)C(OC(C)=O)C2CC3=C4CC(=O)OC(c5ccoc5)[C@]4(C)CCC3[C@@]1(C)C2=O (stereo not given in full) | – | inconclusive: -56.9% [inhibitor] [at 2.33 µM] |
| CC(=O)c1cccc(NC(=O)N2CCC(c3ccc(C)cc3)C2)c1 (stereo not given) | inconclusive: 56.2 µM [inhibitor, partial curve] | – |
| CN(CCO)c1cc(N2CCC3(CC2)OCCO3)c2nonc2c1[N+](=O)[O-] | inconclusive: 0.708 µM [inhibitor, partial curve, poor fit] | – |
| Cc1c(NC(=S)NC(NC(=O)C(C)C)C(Cl)(Cl)Cl)c(=O)n(-c2ccccc2)n1C (stereo not given) | inconclusive: 89.1 µM [inhibitor, single point] | – |
| CN(C)/C=C/C(=O)c1ccc2noc(-c3ccc(F)cc3)c2c1 | inconclusive: 89.1 µM [inhibitor, single point] | – |
| O=C(C1CCCC1)N1CCN=C1SCc1cccc([N+](=O)[O-])c1 | inconclusive: 79.4 µM [inhibitor, partial curve, poor fit] | – |
| C#CCSc1nc2sc3c(c2c(=O)n1-c1cccc(OC)c1)CCN(C(C)=O)C3 | inconclusive: 31.6 µM [inhibitor, single point] | – |

| SMILES | Potency | activity, negative = inhibition |
| --- | --- | --- |
| O=C(CSc1oc(-c2ccco2)nc1S(=O)(=O)c1ccc(Cl)cc1)NCC1CCCO1 (stereo not given) | active: 44.7 µM | – |
| O=C(N/N=C/c1cn(Cc2ccccc2)c2ccccc12)c1ccncc1 | inconclusive: 39.8 µM [inhibitor, partial curve, poor fit] | – |
| CC(C(=O)NCc1ccc2c(c1)OCO2)c1ccc([N+](=O)[O-])cc1 (stereo not given) | inconclusive: 44.7 µM [inhibitor, partial curve] | – |
| CCOc1ccc(/C(O)=C2/C(=O)C(=O)N(c3cc(C)on3)C2c2ccc(C(=O)OC)cc2)cc1 (stereo not given) | inconclusive: 56.2 µM [inhibitor, partial curve, poor fit] | – |
| O=C(OCC(=O)N1CCN(C(=O)c2ccco2)CC1)c1ccccc1OCc1ccccc1 | inconclusive: 70.8 µM [inhibitor, partial curve] | – |
| COc1ccc(/C=C2\CN(Cc3ccccc3)C/C(=C\c3ccc(OC)c(O)c3)C2=O)cc1O | active: 44.7 µM | – |
| CSc1ccccc1OCc1cc(C(=O)N2CCN(c3ncccn3)CC2)no1 | active: 56.2 µM | – |
| CC(SCc1cn2cc(Cl)ccc2n1)C(=O)O (stereo not given) | inconclusive: 70.8 µM [inhibitor, single point] | – |
| Cc1cc(C2=CC(C)(c3cc(C)oc3C)Nc3nc(C(F)(F)F)nn32)c(C)o1 (stereo not given) | inconclusive: 12.6 µM [inhibitor, partial curve, poor fit] | – |
| COCCn1c(SCC(=O)c2ccc(OC)cc2)nc2cc(C(=O)NC3CCCC3)ccc2c1=O | inactive | – |
| O=C(Nc1ccc(NC(=S)NC(=O)c2ccco2)cc1)c1ccccc1 | inconclusive: 89.1 µM [inhibitor, single point] | – |
| Cc1cccc([C@@H]2C[C@H]3CN(Cc4cccc(Cl)c4)C(=O)[C@]34CCCN24)n1 | active: 39.8 µM | – |
| CCCC(=O)N(Cc1cc2ccccc2[nH]c1=O)c1ccccc1OC | inconclusive: 89.1 µM [inhibitor, single point] | – |
| Cc1cccc(C(C)C)c1NC(=O)C1CN(S(=O)(=O)c2ccccc2)CCN1S(=O)(=O)c1ccccc1 (stereo not given) | active: 70.8 µM | – |
| O=S(=O)(O)c1cc(O)c2c(O)c(N=Nc3cc(Cl)ccc3O)c(S(=O)(=O)O)cc2c1 | active: 10 µM | – |
| COc1ccc(NC(=O)CC2SC(N3CCCCC3)=NC2=O)cc1OC (stereo not given) | – | inactive: 29.8% [at 12.7 µM] |
| O=C(NCC(=O)N1CCN(S(=O)(=O)c2cccc(F)c2)CC1)c1ccc(Br)o1 | inactive | – |
